The whole screen tested about 420,000 compounds, of which about 50,000 (12%) were called active. Inconclusive results, whose numbers are uncertain, are shown with a selection of clear calls. Calls follow the shape of the dose curve; as a rule, active = well fitted inhibition curve with a large enough effect; inconclusive = small, poorly fitted or top-dose-only effect; inactive = flat fitted curve, though single readings scatter. No potency is given beside an inconclusive call; the fits are too rough. Where a SMILES comes first, the peptide text is derived from it. [ ]: non-standard residue; d: D form.
Assay: qHTS for Inhibitors of human tyrosyl-DNA phosphodiesterase 1 (TDP1): qHTS in cells in presence of CPT; also: nearly all actives have a fitted effect of over 55% in size
Settings: chicken DT40 Tdp1-/-;hTDP1 cells + 20 nM CPT, ATP luminescence, 48 h; series mostly up to 46.2 µM
Outline: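 Chicken DT40 Tdp1-/- cells stably complemented with human TDP1 were seeded at 400 cells/well in medium containing 20 nM camptothecin, exposed to pin-transferred compounds, and grown at 37 °C for at least 48 hr. Viability was read as ATP luminescence.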
Potency is read from the fitted curve at half-maximal effect; tags tell the direction and shape of the fitted curve.

Row | SMILES | Potency
1 | COc1ccc(NC(=S)N/N=C/c2ccc(F)cc2)cc1OC | inconclusive [inhibitor, single point]
2 | COc1ccc(CN2C(=O)C(Cc3ccccc3)Nc3ncnc(N4CCCCC4)c32)cc1 (stereo not given) | inconclusive [inhibitor, single point]
3 | CC1CCN(S(=O)(=O)c2ccc(NC(=O)Cn3nnc(-c4ccccc4)n3)cc2)CC1 | inconclusive [inhibitor, single point]
4 | CCOCCOC(=O)c1ccc(-n2cncn2)nc1 | inactive
5 | Fc1ccc(CNCc2cccc(Br)c2)cc1 | inconclusive [inhibitor, single point]
6 | CC[C@H](C)[C@@H]1NC(=O)[C@H]([C@@H](C)CC)NC(=O)[C@@H](CC(C)C)NC(=O)[C@H](Cc2ccccc2)NC(=O)[C@H](Cc2ccccc2)NC(=O)[C@@H]2CCCN2C(=O)[C@@H]2CCCN2C(=O)[C@H](C(C)C)NC(=O)[C@H](CC(C)C)NC1=O (cyclo(FF[dL]IILVPP)) | active: 6.51 µM
7 | Nc1ccc(CC(N)c2csc(Nc3nncc4ccccc34)n2)cc1 (stereo not given) | inconclusive [inhibitor, single point]
8 | COc1ccc(-c2cnc(C)o2)cc1S(=O)(=O)Nc1ccc(NC(C)=O)cc1 | inactive
9 | C=CCN(C(=O)c1ccccc1)C1CCS(=O)(=O)C1 (stereo not given) | inactive
10 | CCOc1ccccc1CN1C(=O)C2(OCCO2)c2ccccc21 | inconclusive [inhibitor, single point]
11 | Cc1cccc(NC(=O)CSCC(=O)Nc2ccc(S(=O)(=O)N3CCCC3)cc2)c1 | inactive
12 | O=C(CSc1nccn1-c1cccc(Cl)c1)Nc1ccc2c(c1)OCO2 | inconclusive [inhibitor, single point]
13 | CCN(C(=O)C1CCN(S(=O)(=O)c2cc(Br)cc3c2N(C(C)=O)CC3)CC1)c1cccc(C)c1 | inconclusive [inhibitor, single point]
14 | CC(C)CC(=O)NC(=S)NNC(=O)c1ccc(NC(=O)C2CCCCC2)cc1 | active: 20.6 µM
15 | COC(=O)c1c(NC(=O)CN(c2ccc(C)c(C)c2)S(C)(=O)=O)sc2c1CCCC2 | inconclusive [inhibitor, partial curve, poor fit]
16 | CCC1CCCCN1CCCNC(=O)c1ccc2nc(N3CCCCC3)sc2c1 (stereo not given) | inconclusive [inhibitor, partial curve]
17 | CCC(=O)C1=C(c2ccc(F)cc2)N(C(=O)CC)n2c(nnc2-c2ccc(OC)cc2)S1 | active: 4.11 µM
18 | O=C1CC(N2CCN(c3cccc(C(F)(F)F)c3)CC2)C(=O)N1c1ccccc1F (stereo not given) | inactive
19 | Cc1ccc(NC(=S)Nc2ccc(OC(F)F)c(Cl)c2)cc1F | inconclusive [inhibitor, single point]
20 | CCn1c(=O)c(C(=O)NNC(=O)Cc2ccccc2)c(O)c2ccccc21 | inconclusive [inhibitor, single point]
21 | COC(=O)N/N=C\c1c(C)nn(-c2ccccc2)c1Cl | inactive
22 | Cc1c(C(=O)N2CCCCC2)c(S(=O)(=O)N(C)Cc2ccccc2)c(C)n1C | inactive
23 | Cc1cc(C)cc(Cn2cc(CN3CC(N4CCN(CCO)CC4)CS3(=O)=O)nn2)c1 (stereo not given) | inactive
24 | CCOC(=O)[C@]12CCCC=C1N(Cc1ccc(Cl)cc1Cl)C(=O)[C@H](CC(=O)NCC1CCCCC1)C2 | active: 23.1 µM

Row | SMILES | Potency
25 | c1coc(Cn2c(-c3ccco3)nc3ccccc32)c1 | inconclusive [inhibitor, single point]
26 | O=C(CN(C(=O)CCC(=O)Nc1nccs1)c1ccc(F)cc1)NCc1ccc(F)cc1 | inactive
27 | CN(CC(=O)Nc1cccc(F)c1)C(=O)c1ccccc1Sc1ccccc1C#N | inconclusive [inhibitor, single point]
28 | Cc1cc(NCCCOC(C)C)n2c(nc3ccccc32)c1C#N | inconclusive [inhibitor, single point]
29 | COc1ccc(NS(=O)(=O)c2ccc(N3CCOCC3)c(NC(=O)c3cccc(F)c3)c2)cc1 | active: 9.2 µM
30 | Cc1ccc(-c2cc(C(=O)Oc3ccc(C#N)cc3)no2)cc1 | inactive
31 | CN1C(=O)N(C)C2(C)CC1(C)N(C)C(=O)N2C | inactive
32 | Cc1ccsc1CCNC(=O)C1CCC(=O)N(CCc2cccc(F)c2)C1 (stereo not given) | inconclusive [inhibitor, partial curve]
33 | CO/N=C/C(=N\Nc1ccc(C)cc1)C(=O)c1ccc(OC)cc1 | active: 4.11 µM
34 | O=C(Nc1ccc(Cc2ccncc2)cc1)c1ccc(Cl)c([N+](=O)[O-])c1 | active: 16.4 µM
35 | CCNC(=S)N(CCc1c(C)[nH]c2ccc(OC)cc12)Cc1cccnc1 | inactive
36 | CCc1ccc(CSc2nc(-c3ccccc3F)nc3c2Cc2c(CO)cnc(C)c2O3)cc1 | inconclusive [inhibitor, partial curve]
37 | O=C(c1cc(C2CCCCN2S(=O)(=O)c2ccccc2)on1)N1CCOCC1 (stereo not given) | inactive
38 | Cc1cccc(C(=O)NNC(=O)c2c(-c3ccccc3Cl)noc2C)c1O | inconclusive [inhibitor, single point]
39 | Cc1ccc(NC2=Nc3ccccc3N3C2=Nc2c(c(C)nn2-c2ccccc2)C3c2ccc(O)c(O)c2)cc1 (stereo not given) | inconclusive [inhibitor, single point]
40 | Cc1nc2ccccc2c(=O)n1-c1ccc(NC(=O)c2ccccc2[N+](=O)[O-])cc1 | inconclusive [inhibitor, single point]
41 | CCN(Cc1ccccc1)C(=O)Cn1c(=O)n(-c2ccccc2)c(=O)c2c1c1cc(C)ccc1n2C | active: 9.2 µM
42 | COC(=O)c1[nH]c2c(c1C)C(=O)CC(c1cccs1)C2 (stereo not given) | active: 0.731 µM
43 | O=C(CSc1nc(=O)[nH]c2c1CCC2)NCc1ccccc1Cl | inactive
44 | COc1ccc(CN(C)[C@H]2C[C@H]3c4[nH]c5ccccc5c4CCN3C[C@H]2[C@H](C)O)cc1 | inconclusive [inhibitor, partial curve]
45 | O=C(NCc1cccc(C(F)(F)F)c1)c1[nH]c(C(F)(F)F)nc1-c1ccccc1 | inconclusive [inhibitor, single point]
46 | COCCN(C(=O)COC(=O)C12CC3CC(CC(C3)C1)C2)c1c(N)n(Cc2ccccc2)c(=O)[nH]c1=O | inconclusive [inhibitor, single point]
47 | CC1(C(=O)N2CCN(c3ccc([N+](=O)[O-])cc3)CC2)CC1(Cl)Cl (stereo not given) | inconclusive [inhibitor, single point]
48 | Cn1c(-c2ccco2)n[nH]c1=S | inactive

Row | SMILES | Potency
49 | COc1ccc(OC(=O)c2nc(SCc3ccccc3F)ncc2Cl)cc1 | inactive
50 | CSc1cccc(NS(=O)(=O)c2cn(C)cn2)c1 | inactive
51 | Cc1nn(Cc2ccc(Cl)c(Cl)c2)c(C)c1NC(=O)c1cc(CC(C)C)on1 | active: 18.4 µM
52 | O=C(N/N=C/c1cccn1-c1ccccc1)c1ccncc1 | inactive
53 | O=C(N/N=C/c1c[nH]c2ccccc12)C1CC(=O)N(c2ccccc2)C1 (stereo not given) | inconclusive [inhibitor, single point]
54 | COc1ccc(/C=N/NC(=O)c2cccc(C(=O)N/N=C/c3ccc(OC)c(OC)c3)n2)cc1OC | inactive
55 | COc1ccc(N2CCN(C(=O)c3ccc(C)c(NC(=O)c4ccco4)c3)CC2)cc1 | inconclusive [inhibitor, single point]
56 | Cn1c(SCc2ccc(Br)cc2)nnc1-c1ccccn1 | inconclusive [inhibitor, single point]
57 | CN(C)c1ccc(NC(=O)CCN2CCN(c3ccccn3)CC2)cc1 | inactive
58 | COc1ccc2nc(SCCC(=O)O)cc(C)c2c1 | inactive
59 | Cc1c(-c2ccccc2)nc2ccccc2c1C(=O)Oc1ccc([N+](=O)[O-])cc1 | active: 8.2 µM
60 | Cc1cc(C)c(CN2CCC(n3nccc3NC(=O)C3CCCC3)CC2)cc1C | inconclusive [inhibitor, full curve, poor fit]
61 | O=C1C[C@H]2C=CCc3cccc(c32)CN1Cc1ccccc1 | inconclusive [inhibitor, single point]
62 | COCCn1nnnc1C(C(C)C)N1CCC(Cc2ccccc2)CC1 (stereo not given) | inconclusive [inhibitor, single point]
63 | COc1ccc2c(c1)c(CCNNC(=O)C(C)(C)C)c(C)n2C(=O)c1ccc(Cl)cc1 | active: 23.1 µM
64 | CCOC(=O)c1cnc(-n2nc(C)cc2C)nc1Nc1cccc(C(C)=O)c1 | active: 16.4 µM
65 | Cc1cc(C)cc(N(C(=O)c2ccccn2)C(C(=O)NC2CCCCC2)c2cccs2)c1 (stereo not given) | inconclusive [inhibitor, single point]
66 | COc1cc(C(=O)NC(=S)NNC(=O)c2ccc3c(c2)OCO3)cc(OC)c1OC | inconclusive [inhibitor, single point]
67 | Cc1cc(C)c(C)c(S(=O)(=O)NCC(=O)Nc2sc3c(c2C(N)=O)CCCC3)c1C | inconclusive [inhibitor, single point]
68 | CC1ON=C(c2ccccn2)N(Cc2ccc3c(c2)OCO3)C1=O (stereo not given) | inconclusive [inhibitor, single point]
69 | COc1ccc(NC(=O)N(Cc2ccc(C)cc2)Cc2cccnc2)c(OC)c1 | inconclusive [inhibitor, partial curve]
70 | Cc1cc(C(=O)CSc2nnnn2C)c(C)n1-c1cccc(F)c1 | inconclusive [inhibitor, single point]

From PubChem BioAssay AID686979 (National Center for Advancing Translational Sciences (NCATS), 2013)
